Source: publication PMC12136788
This is one part of the list.

T1: UNK ZnF1-3 (human, UniProt Q9C0B0 31-174)
T1 sequence: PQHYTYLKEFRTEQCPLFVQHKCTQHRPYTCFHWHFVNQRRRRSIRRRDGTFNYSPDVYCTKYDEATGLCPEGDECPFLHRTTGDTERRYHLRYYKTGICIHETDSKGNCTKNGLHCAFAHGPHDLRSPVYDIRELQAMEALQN

B1: 169768098_169771791_383_CDS_ENSG00000000460_ENST00000359326|human|control|control (ssRNA)
RNA: GGGAGUUCUACAGUCCGACGAUCAUACAUCAUGUCAUCGAAUAAUUUCACAGUCUUUGGUAACACUUGUGAAAAGAAAGUCUGUUCCAAUGUCAGGUGGUUCAUAUGAGGUAAAAACAUUUCUACAAUAAUUUUCAAAAUUUGCAACAGAGGAUUGAGCAUCA
B2: chr12:17277247:17277248:+_ENSMUSG00000020571_ENSMUST00000057288|mus_mus|motif|central (ssRNA)
RNA: GGGAGUUCUACAGUCCGACGAUCAAUUUGAUGGCGUCAACUCGAUGACAUCAUCACUAGAAGAAUACAGACCGCUGACUGCGGGAAAGAAGGUGCAGCUCACCAGACCGAGCACCAGGCGAGCCAUGCCGAUCACCCGCAUUCCAACAGAGGAUUGAGCAUCA
B3: chr14:103803487:103803488:+_ENSG00000100664_ENST00000558506|hu_mus|hu_hu_hu_mus_True|8_88 (ssRNA)
RNA: GGGAGUUCUACAGUCCGACGAUCGAGUUUAUGAUGUGUGUCAAGCAUGCCUCGAUACCCACAGGCUUUACAAGAAUUACCUAUUGUUUGCUUCUUUGGAUUGACAUGCAGAUCUGUUUCAGGAUUCUCACAUUCAGGACAGAGCAACAGAGGAUUGAGCAUCA
B4: 107682518_107682638_1107_CDS_ENSMUSG00000042590_ENSMUST00000080856|mouse|control|control (ssRNA)
RNA: GGGAGUUCUACAGUCCGACGAUCUGGCUUAUAAGCAUAAUUUUUGACAAUCAUCUUAAUAAGAUUCAUGCACUGGACAAUGAAUCGCUCAAAUGUAACGCCUUCACCAACUUCAGUAAAAACAUAGCUUACAGAAAAUUCCAGCAACAGAGGAUUGAGCAUCA
B5: chr11:837959:837960:+_ENSG00000177697_ENST00000530726|hu_mus|FALSE|FALSE (ssRNA)
RNA: GGGAGUUCUACAGUCCGACGAUCGAUGCCAAUGCCCACCGCCCCAAUGACCCGCAGGUGCUCCUGAAUGAAGGUCUCCAGCUUAGUGAUACAGCCACCCUCCACUUUAUAGAUGUUGGAGGCAUGGUCCCGCUUACCACAGCCCAACAGAGGAUUGAGCAUCA
B6: chr7:116084223:116084224:+_ENSMUSG00000031029_ENSMUST00000033342|mus_mus|FALSE|FALSE (ssRNA)
RNA: GGGAGUUCUACAGUCCGACGAUCUGAGGCCCCUCCCACUUGUUGUAAGUCACUUGAGAGUCCAAUCACCCGGUUGGGGCUAAAACACGUCUUCAUGAUGAGGUCAACUCCAAUGCGUUCAGUGUCAUAAUACGCGUACUUCACCAACAGAGGAUUGAGCAUCA
B7: chr3:119450855:119450856:-_ENSMUSG00000028134_ENSMUST00000029780|mus_hu|mus_mus_mus_hu_False|8_58 (ssRNA)
RNA: GGGAGUUCUACAGUCCGACGAUCUGUGGUGCCACUAAGAGGAGUAUUUGCUGUCUGGACAGCUGUCACAGCUUGAAGAACUACUUGAGCACGUUGGUUUAAUGUAUUAUCUGUCUUUAGUUCUUUGUGAUUGGAGUACUGGAUCAACAGAGGAUUGAGCAUCA
B8: chr14:21319651:21319652:-_ENSMUSG00000021816_ENSMUST00000161445|mus_hu|FALSE|FALSE (ssRNA)
RNA: GGGAGUUCUACAGUCCGACGAUCCUAACAUCUGAAUGAUUGAACAGAACCAUUGCUUCUAGGCUGCAUUGCUUAAUCAAAAACACUUCCAGAACAUUUUAAAAUUUCCUUUGCAUUAAAACAUAAAAAUGAUAGAAAGCCAGCCAACAGAGGAUUGAGCAUCA
B9: chr4:25749455:25749456:-_ENSG00000091490_ENST00000264868|hu_hu|hu_hu_hu_mus_False|48_88 (ssRNA)
RNA: GGGAGUUCUACAGUCCGACGAUCGCACUAUGACCUCUAGAAAAAUCAUUCAAGGAGAAAAAUGUAAACCAAUGUACAAUGUUAUCGCCCUCCCUGCGUGUGGAGUGUUUGUCUCAAGGCUCCUUCUAGCUGCUGGAUUUGGGACAACAGAGGAUUGAGCAUCA
B10: chr1:58468927:58468928:-_ENSMUSG00000026034_ENSMUST00000148330|mus_mus|mus_mus_mus_hu_False|8_78 (ssRNA)
RNA: GGGAGUUCUACAGUCCGACGAUCAAUUACUGAAAAAGAUGUUCAUUACCUUAGCUAGGCCAUGUAUGAACCAAAUUACCCAAACAAAAUAAACAUGGCAAUAUAAAAAUGUUAAGAAUUUACAAAGAUUAAAAGCUUAACUUACAACAGAGGAUUGAGCAUCA
B11: 21559051_21559171_2039_CDS_ENSG00000165804_ENST00000421093|human|control|control (ssRNA)
RNA: GGGAGUUCUACAGUCCGACGAUCCCCCGGCCCAGCACCGCUAGAAGGAGGCCGGGGACUUGAGGCGCCCUCCACCCAGGUCGCAGGCUGCGGAGACGGCUUGGCUCCAGAUUGCGGGGCCGAACCCCGCUGGGAAGGAGGCGGCAACAGAGGAUUGAGCAUCA
B12: chr6:51416610:51416611:-_ENSMUSG00000004980_ENSMUST00000090002|perfect_dup|FALSE|FALSE (ssRNA)
RNA: GGGAGUUCUACAGUCCGACGAUCCCUAUCGGUAAUUAUUUCAAUAGUAUCAAUUUUUCCAUACUCUUCAAAGUAAUCUCUAAGGUGGUGUUCCUCAGUAUCUUCCUUAAUUCCACCAACAAACAGCUUCUUCACAGUCACAUGCAACAGAGGAUUGAGCAUCA
B13: chr15:11913776:11913777:-_ENSMUSG00000022205_ENSMUST00000022816|mus_hu|FALSE|FALSE (ssRNA)
RNA: GGGAGUUCUACAGUCCGACGAUCGCCACAACAGUUAAGAUUGUAUUACUUGAUUUUAUUUUACACUAGGUGGUGGGCAGACAAAGUAAUCCUUAAUAAAGUUGACAAUUAGCUUCACUCAAUAUUUUUAAUAAUGCACAUUAACAACAGAGGAUUGAGCAUCA
B14: 123687827_123694627_1436_3pUTR_ENSG00000051825_ENST00000606320|human|control|control (ssRNA)
RNA: GGGAGUUCUACAGUCCGACGAUCGUGAGAUUCCUCUCAGGUAACUGCUUGUUUUCCCUUUGUUUUUUAUAAUAAAUAUCCUUCAGUGACGGUAGCUUCAUCUCAUUACUAGUAUUAGACUGGUUUGGUGACACAUCUGUGGAACAACAGAGGAUUGAGCAUCA

These binders were tested against T1, UNK ZnF1-3 (assay: nsRBNS (natural sequence RNA bind-n-seq); RBNS binding buffer (assumed for nsRBNS): 25 mM Tris pH 7.5, 150 mM KCl, 3 mM MgCl2, 0.01% Triton X-100, 500 ug/ml BSA, 20 U/ml SUPERase-In, 4 C; UNK is unkempt and MSI1 is Musashi-1; names of the RNAs are library labels; protein concentration not given here; high values mean tight binding).
Work on B1 yielded a binding signal of 1.71 enrichment R. Work on B2 yielded a binding signal of 0.269 enrichment R. In the case of B3, the binding signal is reported as 1.36 enrichment R. With B4 the binding signal was 1.1 enrichment R. In the case of B5, the binding signal is reported as 1.17 enrichment R. B6 showed a binding signal of 0.9 enrichment R. Binder B7 has a binding signal of 0.971 enrichment R. With B8 the binding signal was 1.29 enrichment R. Binder B9 has a binding signal of 1.02 enrichment R. B10 was tested, and the binding signal was 0.814 enrichment R. B11 was tested, and the binding signal was 0.72 enrichment R. For B12, the binding signal was 1.05 enrichment R. In the case of B13, the binding signal is reported as 1.93 enrichment R. Binder B14 has a binding signal of 0.987 enrichment R.
